Data reported in paper PMC3605307 (PLoS Pathogens, 2013).

Biological target: T1, TRAIL (TNF-related apoptosis inducing ligand) ectodomain (UniProt P50591 39-281)
T1 construct: also called TNFSF10; Apo2L
Experiment: SPR
Details: one partner purified

B1: human TRAIL-R2-Fc V167A (Fc fusion)
chain: not shown
notes: source: Sf9 insect cells, culture supernatant; not shown: Fc (human IgG1), C-terminal, kept
**Q.** How did the Kd turn out when B1 was run?
**A.** Its Kd is 4.35 nM.

**Q.** What about the koff of the same binder?
**A.** Its koff is 9.57e-06 s⁻¹.

**Q.** What about the kon of the same binder?
**A.** The kon was 2200 M⁻¹ s⁻¹.
